pIC50: −log10 of the molar value. By IC50 is meant the dose at which the fit gives 50% viability; a fit beyond the top or the lowest dose is shown as a bound at that dose. AUC sums up the same curve from the lowest dose to the 256-fold higher top dose; it is 1 without any effect and falls as sensitivity rises. For some assays here: Any top dose called inferred comes from the curve model; the source does not state it.
Tests used:
Assay in all cases: Viability of human cancer cell lines after 72 h of drug (GDSC screen)
[1] = compound: COCC(=O)NC/C=C/c1ccc2ncnc(Nc3ccc(Oc4ccc(C)nc4)c(C)c3)c2c1 [CP724714]; settings: top dose 10.24 µM; top dose inferred
Experimental: (§1)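 Human cancer cell lines in 384-well plates, medium with 10% serum, drug for 72 h over a 256-fold dose range (nine 2-fold or five 4-fold steps up to the top dose). Adherent lines were fixed and stained with the nucleic acid dye Syto60, suspension lines read with resazurin; signal relative to control wells, capped at 0 and 100%. One two-parameter sigmoid per drug and line, fitted in a mixed model over all curves with the slope shared within a line.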

[2] = compound: Cc1cccc(Nc2nc(-c3ccncc3)cs2)c1 [STF-62247]; settings: top dose 10.24 µM; top dose inferred
Experimental: as §1

[3] = compound: COC1=CC(c2cc3ccccc3[nH]2)=N/C1=C\c1[nH]c(C)cc1C [Obatoclax mesylate]; settings: top dose 16 µM
Experimental: as §1

[4] = compound: Cc1cnc(CNC(=O)c2c(=O)c3ccc(N4CCCN(C)CC4)nc3n3c2sc2ccccc23)cn1 [CX-5461]; settings: top dose 10.24 µM; top dose inferred
Experimental: as §1

Cell Line	AUC [1]	pIC50 [1]	AUC [2]	pIC50 [2]	AUC [3]	pIC50 [3]	AUC [4]	pIC50 [4]
OVKATE (ovary, adherent)	0.974	< 4.99	0.924	< 4.99	0.828	< 4.80	0.922	< 4.99
OVMIU (ovary, adherent)	0.849	< 4.99	0.959	< 4.99	0.309	6.60	0.71	5.53
OVTOKO (ovary, adherent)	0.936	< 4.99	0.905	< 4.99	0.316	6.58	0.922	< 4.99
P12-ICHIKAWA (T-cell lymphoblastic leukaemia, suspension)	0.985	< 4.99	0.92	5.03	0.13	6.97	0.389	6.47
PA-1 (ovary, adherent)	0.99	< 4.99	0.907	5.07	0.128	6.99	0.345	6.58
PA-TU-8902 (pancreas, adherent)	0.98	< 4.99	0.956	< 4.99	0.418	6.24	0.827	5.11
PA-TU-8988T (pancreas, adherent)	0.973	< 4.99	0.984	< 4.99	0.292	6.59	0.868	5.03
PANC-02-03 (pancreas, adherent)	0.977	< 4.99	0.966	< 4.99	0.575	5.78	0.966	< 4.99
PANC-03-27 (pancreas, adherent)	0.971	< 4.99	0.988	< 4.99	0.173	6.95	0.891	< 4.99
PANC-04-03 (pancreas, adherent)	0.977	< 4.99	0.973	< 4.99	0.593	5.68	0.978	< 4.99
PANC-08-13 (pancreas, adherent)	0.981	< 4.99	0.982	< 4.99	0.506	5.98	0.949	< 4.99
PANC-10-05 (pancreas, adherent)	0.974	< 4.99	0.965	< 4.99	0.23	6.89	0.778	5.27
PC-3 (prostate, adherent)	0.968	< 4.99	0.962	< 4.99	0.588	5.74	0.925	< 4.99
PC-3 [JPC-3] (lung adenocarcinoma, adherent)	0.911	< 4.99	0.979	< 4.99	0.443	6.18	0.918	< 4.99
PC-14 (lung adenocarcinoma, adherent)	0.953	< 4.99	0.947	< 4.99	0.19	6.86	0.964	< 4.99
PCI-4B (head and neck, adherent)	0.942	< 4.99	0.984	< 4.99	0.066	> 7.20	0.815	5.28

Cell Line	AUC [1]	pIC50 [1]	AUC [2]	pIC50 [2]	AUC [3]	pIC50 [3]	AUC [4]	pIC50 [4]
PCI-6A (head and neck, adherent)	0.934	< 4.99	0.982	< 4.99	0.211	6.84	0.598	5.93
PCI-15A (head and neck, adherent)	0.968	< 4.99	0.987	< 4.99	0.387	6.31	0.984	< 4.99
PCI-30 (head and neck, adherent)	0.975	< 4.99	0.983	< 4.99	0.759	5.17	0.985	< 4.99
PCI-38 (head and neck, adherent)	0.961	< 4.99	0.971	< 4.99	0.473	6.07	0.924	< 4.99
PE/CA-PJ15 (head and neck, adherent)	0.962	< 4.99	0.986	< 4.99	0.679	5.48	0.984	< 4.99
PFSK-1 (medulloblastoma, adherent)	0.98	< 4.99	0.976	< 4.99	0.53	5.91	0.986	< 4.99
PL4 (pancreas, adherent)	0.98	< 4.99	0.987	< 4.99	0.637	5.61	0.96	< 4.99
PL18 (pancreas, adherent)	0.973	< 4.99	0.984	< 4.99	0.464	6.10	0.986	< 4.99
RCM-1 (large intestine, adherent)	0.972	< 4.99	0.985	< 4.99	0.426	6.22	0.985	< 4.99
RD (rhabdomyosarcoma, adherent)	0.985	< 4.99	0.977	< 4.99	0.216	6.87	0.736	5.49
RERF-LC-KJ (lung adenocarcinoma, adherent)	0.983	< 4.99	0.984	< 4.99	0.477	6.06	0.982	< 4.99
RERF-LC-MS (lung adenocarcinoma, adherent)	0.977	< 4.99	0.985	< 4.99	0.527	5.93	0.951	< 4.99
RERF-LC-Sq1 (lung squamous cell carcinoma, adherent)	0.976	< 4.99	0.974	< 4.99	0.761	5.08	0.956	< 4.99
RH-41 (rhabdomyosarcoma, adherent)	0.989	< 4.99	0.992	< 4.99	0.414	6.22	0.99	< 4.99
RKN (ovary, adherent)	0.972	< 4.99	0.961	< 4.99	0.378	6.34	0.984	< 4.99

Reference: the supplement of paper PMC4967469
